Measured values reported in article PMC4336329 (PLoS ONE, 2015).
Hit rate of the full screen: of about 310,000 compounds, about 14,000 (4.5%) showed an effect of 50% or more. The effect is printed as a negative number. The list shows a part of the results.

Biological target: human ether-à-go-go-related gene (hERG) potassium channel (human, UniProt Q12809)
Assay: primary screen, population patch clamp on CHO cells stably expressing hERG
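Note: peak tail current of the secondary pulse compared with the same well before compound.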

Sequence of human ether-à-go-go-related gene (hERG) potassium channel (Q12809 whole entry, looked up): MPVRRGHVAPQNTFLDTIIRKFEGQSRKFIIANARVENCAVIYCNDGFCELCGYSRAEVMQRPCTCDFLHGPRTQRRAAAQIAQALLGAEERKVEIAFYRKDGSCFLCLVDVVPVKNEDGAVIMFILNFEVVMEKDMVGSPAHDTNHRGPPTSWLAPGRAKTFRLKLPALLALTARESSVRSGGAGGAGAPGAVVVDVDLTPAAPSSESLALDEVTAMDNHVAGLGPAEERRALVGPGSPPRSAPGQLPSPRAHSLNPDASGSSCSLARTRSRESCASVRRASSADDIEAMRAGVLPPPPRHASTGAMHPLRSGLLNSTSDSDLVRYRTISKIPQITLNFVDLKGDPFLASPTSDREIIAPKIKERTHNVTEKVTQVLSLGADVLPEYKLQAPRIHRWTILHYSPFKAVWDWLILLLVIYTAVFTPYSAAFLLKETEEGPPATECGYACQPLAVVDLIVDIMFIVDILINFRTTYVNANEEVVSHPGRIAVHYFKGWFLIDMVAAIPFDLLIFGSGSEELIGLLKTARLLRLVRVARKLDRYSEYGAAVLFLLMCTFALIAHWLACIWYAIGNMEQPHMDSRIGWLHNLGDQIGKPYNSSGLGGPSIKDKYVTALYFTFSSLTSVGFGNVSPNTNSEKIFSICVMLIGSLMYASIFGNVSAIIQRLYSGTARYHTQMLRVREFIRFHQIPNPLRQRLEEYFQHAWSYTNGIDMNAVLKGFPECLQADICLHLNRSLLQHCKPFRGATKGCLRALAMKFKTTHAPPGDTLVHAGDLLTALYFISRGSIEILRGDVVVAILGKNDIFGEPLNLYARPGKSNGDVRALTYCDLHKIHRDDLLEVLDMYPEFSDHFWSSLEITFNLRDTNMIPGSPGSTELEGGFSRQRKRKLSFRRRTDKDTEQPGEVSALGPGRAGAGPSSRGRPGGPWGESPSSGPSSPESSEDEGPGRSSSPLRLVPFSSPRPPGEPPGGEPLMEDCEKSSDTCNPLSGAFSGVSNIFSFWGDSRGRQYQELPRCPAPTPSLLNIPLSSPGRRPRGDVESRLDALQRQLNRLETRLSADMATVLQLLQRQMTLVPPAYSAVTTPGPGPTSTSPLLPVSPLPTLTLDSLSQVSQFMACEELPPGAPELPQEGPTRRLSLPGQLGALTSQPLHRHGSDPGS

SMILES | hERG current change (%, negative = inhibition) at 10uM [%]
O=C(C1CCCO1)N1CCN(C(=S)Nc2ccccc2F)CC1 (stereo not shown) | -4.83
COc1ccc(-n2nc(C(=O)NCC(=O)NCCCN3CCN(C)CC3)c3ccccc3c2=O)cc1OC | 18.9
CSc1nc2c(c(=O)[nH]1)C(c1ccncc1)C(C(=O)OC(C)C)=C(C)N2 (stereo not shown) | -0.441
Cc1ccccc1C(=O)OCc1cnc(Cl)s1 | 12.7
COc1ccc(S(=O)(=O)N2CCCCCC2)cc1NS(=O)(=O)c1cc(C(=O)O)cc(C)c1C | -29.6
CC(=O)c1cccc(NC(=O)CSc2nc(N3CCOCC3)nc(N3CCOCC3)n2)c1 | -6.79
CC(C)C(=O)Nc1ccc(NC(=S)NC(=O)c2ccc([N+](=O)[O-])cc2)cc1 | -3.42
O=C1c2ccccc2C(Nc2ccccc2F)N1c1cccnc1 (stereo not shown) | -15.6
CN(C)c1nc(N/N=C\c2ccc(Cl)c([N+](=O)[O-])c2)nc(Nc2ccc(F)cc2)n1 | -3.19
CCOC(=O)/C(C#N)=C/c1c(N2CCN(c3ccccc3)CC2)nc2ccccn2c1=O | -24.5
NP(=O)(OCCCc1ccccc1)c1ccccc1 (stereo not shown) | 10.9
Cc1ccc2sc(NNC(=O)c3cc(-c4cccs4)nc4ccccc34)nc2c1C | 16.3
Cc1cc(NC(=O)CSc2nc3ccccc3c(=O)n2C(C)c2ccccc2)no1 (stereo not shown) | 2.97
COc1ccc(OCc2nnc(SCc3ccc(C(=O)O)cc3)o2)cc1 | 14.2
CCOc1ccc(NC(=O)N2CC=C(n3c(=O)[nH]c4ccccc43)CC2)cc1 | -8.9
COc1ccccc1N1CCN(C(=O)C(=O)c2c[nH]c3ccccc23)CC1 | 0.156
CCOc1cccc(C(=O)Nc2ccc(N3CCN(S(C)(=O)=O)CC3)cc2)c1 | 16.9
COc1ccc(CCn2nc(C)c([N+](=O)[O-])c2C)cc1 | 8
COc1cc(/C=N/NC(=O)c2cccc([N+](=O)[O-])c2)ccc1OCc1ccccc1 | 4.87
O=C(CCC(=O)c1ccc(F)cc1)Nc1cccc(Br)c1 | 22
CN(CC(=O)Nc1ccc(OC(F)(F)F)cc1)C(=O)c1ccc(N2CCCC2=O)cc1 | -25.9
C=C(C)CNC(=S)NNC(=O)CCn1c2ccc(Cl)cc2c2cc(Cl)ccc21 | 6.82
O=C(OCC(=O)N(CCc1ccccc1)Cc1ccccc1)c1ccccc1O | -5.6
CC1(NC(=O)CC(c2ccccc2)(c2ccccc2)c2ccccc2)CCN(CCCc2ccccc2)C1=O (stereo not shown) | 21.4
Brc1ccc(-n2cc(-c3ccccc3)c3c(NN4CCOCC4)ncnc32)cc1 | -15.7
CC(OC(=O)c1ccc(O)cc1)C(=O)Nc1cc(C(F)(F)F)ccc1Cl (stereo not shown) | -11.2
COc1ccc(Br)cc1S(=O)(=O)n1c([N+](=O)[O-])cnc1C | 22.3
COc1ccc(Nc2ccc(C(F)(F)F)cc2[N+](=O)[O-])cn1 | 17.9

SMILES | hERG current change (%, negative = inhibition) at 10uM [%]
CN(CC(=O)Nc1ccccc1Oc1ccccc1)Cc1ccccc1F.O=C(O)C(=O)O | 5.39
CN(C)S(=O)(=O)c1ccc(NC(=O)CSc2ncnc3ccccc23)cc1 | -33.9
COC(=O)c1scc(C#N)c1N/N=C(\C#N)S(=O)(=O)c1ccc(Cl)cc1 | 2.59
O=S(=O)(c1cccc2cccnc12)N(CCO)CCO | 22.5
CCCCn1nnnc1SCC(=O)N1CCCC1 | 17.9
CC(=O)N1c2ccccc2C(C)=CC1(C)C | 13.2
CC(C)CSc1nc2ccccc2[nH]1 | 8.92
CC(Cc1cccnc1)NC(=O)c1ccccc1OC1CCN(S(C)(=O)=O)CC1 (stereo not shown) | 13.7
CCOC(=O)C1(Cc2cccc(Cl)c2)CCCN(C(=O)c2ccco2)C1 (stereo not shown) | -4.51
CCOC(=O)C(=O)N/N=C(/c1ccccc1)c1ccc(OC)cc1 | 5.41
O=C1Nc2ncccc2OC1CCCl (stereo not shown) | 6.83
COc1cc(SC)ccc1C(=O)NCC1CCCCC1 | -8.33
Cc1ccccc1N=Nc1c(N)n[nH]c1N | 10.5
COc1ccc(OC)c(NC(=O)COC(=O)c2ccc(OC)c(S(=O)(=O)N3CCOCC3)c2)c1 | -2.13
O=C(CSc1ccc2ccccc2n1)N/N=C/c1ccc(O)cc1 | -3.77
Cc1cccc(CNC(=O)CCc2nnc(C3CCCCC3)o2)c1 | 6.86
Cc1ccc(C(=O)Nc2ncc(Cc3ccccc3)s2)o1 | -3.61
O=C(CSc1oc(-c2ccc(F)cc2)nc1S(=O)(=O)c1ccc(F)cc1)NCC1CCCO1 (stereo not shown) | 5.91
Cc1cccc(Nc2nc(N)nc(CSc3nccc(C)n3)n2)c1 | 7.29
Cc1sc2nc[nH]c(=O)c2c1-c1ccc(F)cc1 | 19.8
O=C(CCCC(=O)N(CC(=O)NC1CCCC1)c1cccc(F)c1)Nc1ccccn1 | 4.77
Cc1nc(CNS(=O)(=O)c2cc(F)ccc2F)cs1 | 36.5
COc1ccc(CNC(=O)c2cc(COc3c(F)cccc3F)on2)cc1OC | -15.3
CSc1nnc(-c2cc3c(s2)-c2ccccc2CC3)o1 | 9.92
CO.COC(=O)c1cccc(C(=O)Nc2cnc3ccccc3c2)n1 | -14.4
CCC(=O)N1CCN(c2ccccc2NC(=O)Cc2ccccc2)CC1 | -29.1
CC1CCCCN1CCNC(=O)C1CCCN(S(=O)(=O)c2cccc3nsnc23)C1 (stereo not shown) | -18.9
